Biological target: T1, hTSLP recombinant protein (ACROBiosystems, Cat. No. TSP-H52Ha) (human, UniProt Q969D9 29-159)
T1 construct: Bought protein; also called hTSLP protein; hTSLP-his; not shown: His tag
Test: Gator BLI

T1 sequence (Q969D9 29-159 R127A/R130A limits assumed): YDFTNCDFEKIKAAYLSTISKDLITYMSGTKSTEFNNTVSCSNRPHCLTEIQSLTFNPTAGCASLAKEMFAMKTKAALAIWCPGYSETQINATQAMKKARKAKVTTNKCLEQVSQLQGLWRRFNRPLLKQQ

B1: G7W1-Fc (Fc fusion)
chain: GSDLGKKLLEAAWAGRDDEVRILMANGADVNAGDASGDTPLHLAAVVGHLEIVEVLLKHGADVNAEDLLGMTPLHLAAPFGHLEIVEVLLKHGADVNAAARNNGKTPLHLAAFVGHLEIVEVLLKNGADVNAQDKFGKTAFDISIDNGNEDLAEILQKLNG[left out - human IgG1 Fc]
Kd: 0.582 nM | koff: 0.000365 s⁻¹ | kon: 625000 M⁻¹ s⁻¹

Source: US20250376501A1 (JINGYUAN BIOSCIENCES SUZHOU, published 2025)
